The values below come from article PMC3873466 (PLoS ONE, 2013).

Broadly, the Ki is a measure of affinity in units of concentration, obtained from inhibition or displacement. A high value points to weaker binding.

Molecules are shown by their SMILES.

What all share (experiment): biochemical
Assay [1] concerns the target E. coli ParE (full length) (Escherichia coli, UniProt P20083).
Assay [2] addresses E. faecalis ParE (full length) (Enterococcus faecalis, UniProt H7C794).
Assay [3] has as its target E. faecalis GyrB (full length) (Enterococcus faecalis, UniProt Q839Z1).
UniProt Q839Z1, sequence (Q839Z1 whole entry): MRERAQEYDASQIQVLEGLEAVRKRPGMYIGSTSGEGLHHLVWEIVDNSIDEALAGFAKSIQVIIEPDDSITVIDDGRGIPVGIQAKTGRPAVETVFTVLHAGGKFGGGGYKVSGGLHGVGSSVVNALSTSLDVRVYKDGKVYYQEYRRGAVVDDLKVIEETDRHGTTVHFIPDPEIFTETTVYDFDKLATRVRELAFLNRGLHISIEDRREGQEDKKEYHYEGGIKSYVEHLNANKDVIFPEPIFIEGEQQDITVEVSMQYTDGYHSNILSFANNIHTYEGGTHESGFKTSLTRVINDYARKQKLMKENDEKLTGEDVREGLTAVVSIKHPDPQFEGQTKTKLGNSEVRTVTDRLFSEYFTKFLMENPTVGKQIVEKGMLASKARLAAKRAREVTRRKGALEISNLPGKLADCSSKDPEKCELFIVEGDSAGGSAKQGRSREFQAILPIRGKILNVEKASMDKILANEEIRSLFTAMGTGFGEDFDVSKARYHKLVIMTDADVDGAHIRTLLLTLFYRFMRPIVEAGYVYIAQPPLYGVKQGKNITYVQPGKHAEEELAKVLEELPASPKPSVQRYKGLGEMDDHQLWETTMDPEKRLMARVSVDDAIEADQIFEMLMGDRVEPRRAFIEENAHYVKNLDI

UniProt H7C794, sequence (H7C794 whole entry): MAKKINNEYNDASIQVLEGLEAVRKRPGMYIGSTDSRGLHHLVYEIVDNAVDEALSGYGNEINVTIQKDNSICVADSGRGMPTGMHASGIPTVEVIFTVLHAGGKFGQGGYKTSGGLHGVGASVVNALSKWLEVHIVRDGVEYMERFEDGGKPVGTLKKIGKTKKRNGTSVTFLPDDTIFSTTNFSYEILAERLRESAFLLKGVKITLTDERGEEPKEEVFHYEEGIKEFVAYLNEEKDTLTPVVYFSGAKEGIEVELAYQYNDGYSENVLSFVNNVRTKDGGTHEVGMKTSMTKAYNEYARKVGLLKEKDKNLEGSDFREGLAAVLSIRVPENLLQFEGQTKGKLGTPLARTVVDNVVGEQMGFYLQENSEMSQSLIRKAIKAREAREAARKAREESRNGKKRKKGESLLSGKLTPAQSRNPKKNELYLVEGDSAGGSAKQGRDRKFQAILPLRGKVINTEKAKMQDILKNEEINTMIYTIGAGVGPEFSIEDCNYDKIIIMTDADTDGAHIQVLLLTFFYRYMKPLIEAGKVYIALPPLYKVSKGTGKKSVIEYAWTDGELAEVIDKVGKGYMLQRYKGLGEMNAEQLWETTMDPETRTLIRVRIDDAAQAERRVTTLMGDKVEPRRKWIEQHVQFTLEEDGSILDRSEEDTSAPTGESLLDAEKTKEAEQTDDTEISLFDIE
UniProt P20083, sequence (P20083 whole entry): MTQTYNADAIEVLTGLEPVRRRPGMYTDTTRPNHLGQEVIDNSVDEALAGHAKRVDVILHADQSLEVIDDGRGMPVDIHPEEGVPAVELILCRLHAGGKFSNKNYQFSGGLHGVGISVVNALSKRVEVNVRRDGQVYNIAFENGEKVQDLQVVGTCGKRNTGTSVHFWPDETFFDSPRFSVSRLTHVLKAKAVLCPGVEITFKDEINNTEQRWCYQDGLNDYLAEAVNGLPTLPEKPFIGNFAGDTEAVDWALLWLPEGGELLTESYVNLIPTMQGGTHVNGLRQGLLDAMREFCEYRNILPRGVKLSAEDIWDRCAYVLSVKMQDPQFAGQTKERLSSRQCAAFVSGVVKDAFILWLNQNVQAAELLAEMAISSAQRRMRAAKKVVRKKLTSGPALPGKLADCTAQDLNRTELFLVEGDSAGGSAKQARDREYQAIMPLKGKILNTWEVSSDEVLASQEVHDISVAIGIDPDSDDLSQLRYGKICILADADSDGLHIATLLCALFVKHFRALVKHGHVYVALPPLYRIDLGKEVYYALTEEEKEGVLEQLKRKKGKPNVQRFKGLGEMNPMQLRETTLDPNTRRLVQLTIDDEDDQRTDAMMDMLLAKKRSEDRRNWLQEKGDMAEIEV

Consider `CNc1cc(F)cc2c1[nH]c1nc(Oc3cnc(C)nc3)nc(N3C[C@H]4CCN[C@H]4C3)c12` [C3, 6-fluoro-4-((3aR,6aR)-hexahydropyrrolo[3,4-b]pyrrol-5(1H)-yl)-N-methyl-2-((2-methylpyrimidin-5-yl)oxy)-9H-pyrimido[4,5-b]indol-8-amine], for which the Ki in assay [1] was < 0.1 nM; in assay [2], < 0.3 nM; in assay [3], < 0.3 nM.
